Variants at the background level are over-represented here.

First the molecules themselves.
B1: TPR 5TU (parent)
chain: GGAUCUUCUCGAUCUAACAAAAAAGACAAAUCUGCCACAAAGCUUGAGAGCAUCUUCGGAUGCAGAGGCGGCAGCCUUCGGUGGCGCGAUAGCGCCAACGUUCUCAACUAUGACACGCAAAACGCGUGCUCCGUUGAAUGGAGUUUAUCAUG

In the data set the parent is B1. In words: polymerase ribozyme fitness, log enrichment relative to wild type (log ratio); higher = more active; in vitro selection for triplet polymerase activity. In short, it runs like this: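 PCR was used to build mutant libraries for each subunit of a heterodimeric triplet polymerase ribozyme, which were then transcribed. A single in vitro selection round, in triplicate, used a frozen incubation at −7 °C and recovered extended constructs by gel excision, streptavidin beads and RT-PCR. Fitness is the logarithm of genotype enrichment relative to wild-type enrichment, averaged over replicates with inverse-variance weights. The logarithm is base 2, and after Illumina sequencing only genotypes with ≥10 input reads and ≥1 read per output were kept.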
With GGAUCUUCUCGAUCUAACAAAAAAGACAAAUCUGCCACAAAGCUUGAGAGCGUCUUCCGAUUCAGAGGCGGCAGCCUUCGGUGGCGCGAUAGCGCCAACGUUCUCAACUAUGACACGCGAAACGCGCGCUCCGUUGAAUGGAGUUUAUCAUG, the “polymerase ribozyme fitness (log ratio)” value was no more than -4.2. With GGAUCUUCUCGAUCUAACAAAAAAGACAAAUCUGCCACAAAGCUUGAGAGCGUCUUCGGAUGCAGAGGCGGCAGCCUUCGGUGGCGUGAUAGCGCCAACGUUCUCAACUAUGACAGGCAAACCGCGUGCUCCGUUUAAUGGAGUUUAUCAUG the figure was -2.85; with GGAUCUUCUCGAUCUAACAAAAAAGACAAAUCUGCCACAAAGCUUGAGAGCGUCUUCGGAUGCAGAGGCGGCAGCCUUCGGUUGCGCGAUAGCGCAAACGCUCUCAACUAUGACACGCAAAACACGUGCUCCGUUGAAUGGAGUAUAUUAUG, -2.95. As to GGAUCUUCUCGAUCUAACAAAAAAGACAAAUCUGCCACAAAGCUUGAGAGCGUCUUCGGAUGCAGAGGCGGCAGCCUUCGGUGGCACGAUAGCGCCAACGUACUCAACUAUGACACGCAAAACGCGUGCUCCGUGGAAUGGAGUUUAUCAUG, the “polymerase ribozyme fitness (log ratio)” value was no more than -4.2. Turning to GGAUCUUCUCGAUCUAACAAAAAAGACAAAUCUGCCACAAAGCUUGAGAGCGUCUUCGGAUGCAGAGGCGGCAGCCUUCGGUAGCGCGAUAGCGCCAACGUUCUCAACUAUGACACGCAAGACGCGUGCUCCGUUGAAUGGAGUUUAUCAUG, the “polymerase ribozyme fitness (log ratio)” value is -0.142. With GGAUCUUCUCGAUCUAACAAAAAAGACAAAUCUGCCACAAAGCUUGAGAGCGUCUUCGGAUGCAGAGGCGGCAGCCUUCGGUGGCGCGAUAGUGCCAACGUUCUCAACUAUGACACGCAAAACGCGUGCUCCGUUGAAUGGAGUUUAUCAUG the figure was -1.74. Regarding GGAUCUUCUCGAUCUAACAAAAAAGACAAAUCUGCCACAAAGCUUGAGAGCGUCUUCGGAUGCAGAGGCGGCAGCAUUCGGUGGCGCGAUAGCGCCAACGUUCUCAACUAUGACACGCAAAACGCGUGCUCCGUUGAAUGGAGUUUAUCAUG, the “polymerase ribozyme fitness (log ratio)” value was -0.0301.

Regarding GGAUCUUCUCGAUCUAACAAAAAAGACAAAUCUGCCACAAAGCUUGAGAGCGUCUUCGGAUGCAAAGGCGGCAGCCUUCGGUGGCGCGAUAGCGCCAACGUUCUCAAGUAUGACACGCAAAACGCGUGCUCCGUUGAAUGGAGUUUAUCAUG, the “polymerase ribozyme fitness (log ratio)” value was no more than -4.2. Consider GGAUCUUCUCGAUCUAACAAAAAAGACAAAUCUGCCACAAAGCUUGAGAGCGUCUUCGGAUGCAGAGGCGGCAGCCUUCGGUGAUGCGAUAGCGCCAACGUGCUUAACUAUAACACGCAAAACGCGUGCUCCGUGGAAUGGAGUUUAUCAUG, for which the “polymerase ribozyme fitness (log ratio)” value was no more than -4.2.

Regarding GGAUCUUCUCGAUCUAACAAAAAAGACAAAUCUGCCACAAAGCUUGAGAGCGUCUUCGGAUGCAGAGGCGCCAGCCUUCGGUGGGGCGAUAGCGCCAACGUUCUCAACUAUGACACGUAAAACGCGUGCUCAGUUGAAUGGAGUUUAUCAUG, the “polymerase ribozyme fitness (log ratio)” value was no more than -4.2. With GGAUCUUCUCGAUCUAACAAAAAAGACAAAUCUGCCACAAAGCUUGAGAGCGUCUUCGGAUGCAGAGGCGGUAGCCUUCGGUGUCGGGAUAGCGCCAACGUUCUCAACUAUGACACGCAAAACGCGUGCUCCGUUGAAUGGAGUUUAUGAUG the figure was no more than -4.2; with GGAUCUUCUCGAUCUAACAAAAAAGACAAAUCUGCCACAAAGCUUGAGAGCGUCUUCGGAUACAGAGGCGGCAGCUUUCGGUGGCGCGAUAGCGCCAACGUUCUCAACUAUGACACGCAAAACGCGUGCUCCGUUGAAUGGAGUAUAUCAUG, -2.04. With GGAUCUUCUCGAUCUAACAAAAAAGACAAAUCUGCCACAAAGCUUGAGAGCGUCUUCCGAUGCAGAGCCGGCAGCCUUCGGUGGCGCGAUAGCGCCAACGUUCUCAACUAUGACACGCAAAACGCGUGCUCCGUUGAAUGGAGUUUAUCAUG the figure was no more than -4.2; with GGAUCUUCUCGAUCUAACAAAAAAGACAAAUCUGCCACAAAGCUUGAGAGCGUCUUCGGAUGCAGAGGCGGCAGCCUUCGGUGGCGCGAUAGCGCCAACGUUCUCAACUAUGACACGCAAAACGUGUGCUUCGUUGAAUGGAUUUGAUCAUG, no more than -4.2.

For the variant GGAUCUUCUCGAUCUAACAAAAAAGACAAAUCUGCCACAAAGCUUGAGAGCGUCUUCGGAUGCAGAGGCGGCAGCCUUGGGUGGCGCGAUAGCGCCAACGUUCUCAACUAUGACACGCAAAACGCGUGCUCCGUUGAAUGGAGUUUAUCAUG, the “polymerase ribozyme fitness (log ratio)” value was -3.71. GGAUCUUCUCGAUCUAACAAAAAAGACAAAUCUGCCACAAAGCUUGAGAGCGUCUUCGGAUGCAGAGGCGGCAGCCUUCGGUUGCGCGAUAGCGCCAACGUUCCCAACUAUGAGACGCAAAACGAGUGCUCCGUUGAAUGGAGUUUAUCAUG: the “polymerase ribozyme fitness (log ratio)” value was no more than -4.2. With GGAUCUUCUCGAUCUAACAAAAAAGACAAAUCUGCCACAAAGCUUGAGAGCGUCUUCGGAUGCAGACGCGGCAGCCUUCGGUGGCGCGAUAGCGCCAACGUUCUCAACUAUGACACGCAAAACGCGUGCUCCGUUGAAUGGAGUUUCUCAUG the figure was no more than -4.2. On to GGAUCUUCUCGAUCUAACAAAAAAGACAAAUCUGCCACAAAGCUUGAGAGCGUCUUCGGAUGCAGAGGCGGCAGCCUUCGGUGGCGCGAUAGCGCUAACAUUCUCAACUAUGACACGCAGAACGCGUGCUCGGUUGAAUGGAGUUUAUCAUG, for which the “polymerase ribozyme fitness (log ratio)” value was no more than -4.2. As to GGAUCUUCUCGAUCUAACAAAAAAGACAAAUCUGCCACAAAGCUUGAGAGCGUCUUCGGAUGCAGAGGCGGCAGCCUUCGGUGGCGCGAUAUCGCCAACGAUCUCAACUAAGACACGCAAAACGCGUGCUCCGUUGAAUGGAGUUUAUCAUG, the “polymerase ribozyme fitness (log ratio)” value is no more than -4.2.

In the case of GGAUCUUCUCGAUCUAACAAAAAAGACAAAUCUGCCACAAAGCUUGAGAGCGUCUUCGGAUGCAGAGGCGGCAGCCUUCGGUGGCGCGAUAGCGCCAACGUUCUCAAGUAUGACACGCAAAACGCGUGCUCCGUUGAAUGGAGUUUAUCAUG, the “polymerase ribozyme fitness (log ratio)” value is no more than -4.2. With GGAUCUUCUCGAUCUAACAAAAAAGACAAAUCUGCCACAAAGCUUGAGAGCGUCUUCGGAUGCAGAGGCGGCAGCCUUCGGUUGAGCGAUAGCGCCAGCGUUCUCAACUAUGACACGCAAAACGCGUGCUCCGUUGAAUGGAGUUUAUCAUG the figure was no more than -4.2; with GGAUCUUCUCGAUCUAACAAAAAAGACAAAUCUGCCACAAAGCUUGAGAGCGUCUUCGGAUGCAGAGGCGGCAGUCUUAGGUGGCGCGAUAGCGCCAACGUUUUCAACUAUGACACGCAAAACGCGUGCUCCGUUGAAUGGAGUUUAUCAUG, no more than -4.2; with GGAUCUUCUCGAUCUAACAAAAAAGACAAAUCUGCCACAAAGCUUGAGAGCGUCUUCGGAUGCAGAGGCGGCAGCCUUCGGUAGCGCGAUAGCGCCAACGUUCUCAACUAUGACACGCAAAACGCGUGCUCCGUUGAAUGGAGUUUAUCAUG, -0.0714.

As for GGAUCUUCUCGAUCUAACAAAAAAGACAAAUCUGCCACAAAGCUUGAGAGCGUCUUCGGAUGCAGAGGCGGCACCCUUCGGUGGCGAGAUAGCGCCAACGUUCUCAACUAUGUCACGCAAAACGAGUGCUCCGUUGAAUUGAGUUUAUCAUG, the “polymerase ribozyme fitness (log ratio)” value is no more than -4.2. For GGAUCUUCUCGAUCUAACAAAAAAGACAAAUCUGCCACAAAGCUUGAGAGCGUCUUCGGAUGCAGAGGCGGCAACUUUCGGUGCCGCGAUAGCGCCAACGUUCUCAACUAUGACACGGAAAACGCGUGCUCCGUUGAAUGGAUUUUAUCGUG, the “polymerase ribozyme fitness (log ratio)” value was no more than -4.2.

As to GGAUCUUCUCGAUCUAACAAAAAAGACAAAUCUGCCACAAAGCUUGAGAGCGUCUUCGGAUGCAGAGGCGGCAGCCUUCGGUGGUGCGGUAGCGCCAACGUUCUCGACUAUGACACGCAAAACGCGUGCUCCGUUGAAUGUAGUUUAGCAUG, the “polymerase ribozyme fitness (log ratio)” value is no more than -4.2.

GGAUCUUCUCGAUCUAACAAAAAAGACAAAUCUGCCACAAAGCUUGAGAGCGUCUUCGGAUGCAGAGGCGGCAGCCUUCGGUGGGGCGAUAGCGCCAACGUUCGCAACUAUGACUCGCAAAACGCGUGCUCCGUUGAAUGGAGUUUCUCAUG: the “polymerase ribozyme fitness (log ratio)” value was no more than -4.2.

For the variant GGAUCUUCUCGAUCUAACAAAAAAGACAAAUCUGCCACAAAGCUUGAGAGCGUCUUCGGAUGCAGAGGCGGCAGCCUUCGGUGGCGAGAUAGCGCCAACGUUCUCAACUAUGACACGCAAAACGCGUGCUCCGUUGAAUGGAGUUUAUCAUG, the “polymerase ribozyme fitness (log ratio)” value is no more than -4.2. In the case of GGAUCUUCUCGAUCUAACAAAAAAGACAAAUCUGCCACAAAGCUUGAGAGCGUCUUCGGAUGCAGAGGCGGCAGCCUUCGGUGGCGUGAUAGCGCCAACGUUCUCAACUAUGACACGCAAAACGCGUGCUCCGUUGAAUGGAGUUUAUCAUG, the “polymerase ribozyme fitness (log ratio)” value is -1.3. With GGAUCUUCUCGAUCUAACAAAAAAGACAAAUCUGCCACAAAGCUUGAGAGCGUCUUCGGAUCCCGAGGCGGCAGCCUUAGGUGACGCGAUAGCGCCAACGUUCUCAACUAUGACACCCAAAACGCGUGCUCCGUUGAAUGGAGUUUAUCAUG the figure was no more than -4.2. With GGAUCUUCUCGAUCUAACAAAAAAGACAAAUCUGCCACAAAGCUUGAGAGCGUCUUCGGAUGCAGAGGCAGCAGCCUUCGGUGGCGCGAUAGCGCAAACGUGCUCAACUAUGACACGCAAAACGCGUGGUCCGUUGAAUGGAAUUAAUCAUG the figure was no more than -4.2. Turning to GGAUCUUCUCGAUCUAACAAAAAAGACAAAUCUGCCACAAAGCUUGAGAGCGUCUUCGGAUGCAGAGGCGGCAGCCUUCGGUGGCGCGAUAGCGCGUACGUUCUCAACUAUGACACGCAAAACGCGUGCUCCGUUGAAUGGAGUUUAGCAUG, the “polymerase ribozyme fitness (log ratio)” value was no more than -4.2. On to GGAUCUUCUCGAUCUAACAAAAAAGACAAAUCUGCCACAAAGCUUGAGAGCGUCUUCGGAUGCAGAGGCCGCAGCCUUCGGUGGCGCGAUAGCGCCAACGUUAUCAACUAUGACACGCAAAACGCGUGCUCCGUUGAAUGGCGUUUAUCAUG, for which the “polymerase ribozyme fitness (log ratio)” value was no more than -4.2. For the variant GGAUCUUCUCGAUCUAACAAAAAAGACAAAUCUGCCACAAAGCUUGAGAGCGUCUUCGGAUGCAGAGGCGCCAGCCUUCGGUGGCGCGAUAGCGACAACGUUCUCAACUAUGACACGCAAAACGCGUGCUACGUUGAAAGGAGUUUAUCAUG, the “polymerase ribozyme fitness (log ratio)” value is no more than -4.2. Take GGAUCUUCUCGAUCUAACAAAAAAGACAAAUCUGCCACAAAGCUUGAGAGCGUCUUCCCAUGCAGAGGCGGCAGCCUUCGGUGGCGCGAUAGCGCGAACGUUCUCAACUAUGACACGCAAAACGCGUGCUCCGUUGAAUGGAGUUUAUCUUG: the “polymerase ribozyme fitness (log ratio)” value is -3.59. For GGAUCUUCUCGAUCUAACAAAAAAGACAAAUCUGCCACAAAGCUUGAGAGCGUCUUCGGAUGCAGAGGCGGCAGGCUUCGGUGGCGCGAUAGCGCCAACGUUCGCAACUAUGACACGCAAAACGCGUGCUCCGUUGAAUGGAGUUUAUCAUG, the “polymerase ribozyme fitness (log ratio)” value is no more than -4.2. With GGAUCUUCUCGAUCUAACAAAAAAGACAAAUCUGCCACAAAGCUUGAGAGCGUCUUCGGAUGCAGAGGCGGCAGCUUUCGGUGCCGGGAUAGCGCCAACGUUCUAAACUAUGACAAGCAUAACGCGUGCUCCGCUGAAUGGAGUUUAUCAUG the figure was no more than -4.2; with GGAUCUUCUCGAUCUAACAAAAAAGACAAAUCUGCCACAAAGCUUGAGAGCGUCUUCGGAUGCAGAGGCGGCAGCCUUCGGUGACGCGAUAGCGCCAAUUUUCUCAACUAUGACACGCAAAACGCGUGCUCCGUUGAAUGGAGAUUAUCAUG, no more than -4.2.
